Whole data set: some 33,000 sequences, median “E-score (-0.5 to 0.5)” near -0.054, cut for the highest 2% near 0.39. Some of the results follow.
These sequences were tested against Ylr278c (UniProt Q05854) (assay: PBM E-score (8-mer binding enrichment) (E-score (-0.5 to 0.5)); higher = stronger / more preferred TF binding; most listed sequences are background and not binding sites). Settings: protein concentration: 200 nM; construct: GST-DNA-binding domain.
Method in brief: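 Yeast transcription factors, full-length or as DNA-binding domains, were expressed with a GST tag using PURExpress in vitro transcription/translation. At about 100-200 nM they were applied to universal all-10-mer Agilent arrays, double-stranded by primer extension on fresh or once-stripped slides. Fluorescent anti-GST detected bound protein, and masliner normalised the scans. E-scores for ungapped eight-base words, pooled with reverse complements, came from the Universal PBM Analysis Suite.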

Sequence	PBM E-score
AAATCTAT	-0.0238
GCCCATAC	-0.275
GACTGTCA	-0.0692
CAAGGGAA	-0.215
CTTTAATC	-0.0149
CAGAAGTC	-0.136
TATAGCAA	-0.15
ACCGCGCC	0.125
AGTGAACC	-0.135
CACGAAAG	-0.0924
GTCTTAAA	-0.137
CATACGTC	-0.0276
ATAATCTA	0.0377
GGCGTCCC	0.0884
CGCCCTAA	-0.0151
CAGCCAGC	-0.191
ATAAGACC	0.0726
CGCCGGAA	0.432
AACCTTGA	-0.0432
ACCGGCCT	0.179
CTGTCCCC	-0.127
GACACCAA	-0.0658
AATACGGA	0.37
GGCGCCTA	-0.115
CTTTGTTC	0.163

Sequence	PBM E-score
AACGAGAG	-0.0657
TAGAGCTA	-0.281
AGATTAAT	0.0681
CCCACGGA	0.359
AAGGGTGT	0.0144
ATGGTACG	0.0066
GGTCTCAC	-0.133
AATTCGTG	-0.135
ATGCACAC	-0.153
CATGATAG	-0.277
CAAAGCGA	-0.0272
CCTTGCTC	0.0082
CGAACTTC	-0.158
CTAAGCGC	0.0111
CAGCCTGC	-0.159
AAGGACGG	0.054
ACAAGCAA	-0.164
CCGTTCCG	0.402
CGATGTAC	0.0176
ACCCCAGA	-0.168
AGCTGCCG	0.137
AGACCCAG	-0.263
GTCTACAA	-0.282
ACCCGCCA	-0.068
CTCGGACC	0.365

Sequence	PBM E-score
GAATAATC	0.0213
CAGATTAA	0.0707
AACCGTAA	0.0944
GTCTGAAA	-0.123
GTTTCATA	-0.0158
CGCAACGA	0.0472
ATTTCAGA	-0.127
AACTTCGG	0.302
TTCGGCAA	0.211
CAGATGCG	-0.144
CTCAAAAA	-0.113
AAACTAGG	0.00324
CGTTCCAA	-0.0135
TAAGAAAA	-0.0396
GTTGAACA	-0.22
GGTCCCCA	0.0138
AGCCCTCA	-0.107
GCCCGTAC	0.0569
CCACAAAC	0.0849
GGTCTGCA	0.0432
ACGCTCAT	-0.173
CGCTACGC	0.00348
AAAGGGAC	-0.268
ATTTCGGG	0.235
ACTCGACA	0.0965

Sequence	PBM E-score
CTTTATAA	-0.106
ACTGGTAT	-0.222
ACCGGGTC	0.134
CTACGATC	-0.205
CGGCGTAG	0.196
ACATTTAC	-0.135
ACAATTGC	-0.0317
ATTCAGAC	-0.275
CCTAGTGA	-0.0501
CTAAAGGC	-0.265
CGTTTTTA	-0.0693
GGGCATAC	-0.0274
CTCTGTCA	-0.21
CTGTCCAA	-0.217
GGTCTGAC	-0.0242
CTTACTTC	0.00609
CGAAAGTA	0.00237
GGGCGCCA	0.0802
CCACCCTA	-0.0146
CCATTTCG	0.0464
GACTCGGA	0.4
CCGATTAG	0.339
AACATAAC	-0.0924
ATCCTGGG	-0.23
CCATTTAG	-0.0672

Sequence	PBM E-score
CACCTGGA	-0.182
TCTTGTAA	-0.0214
CTCGGTTA	0.0916
ACGGAAGG	0.117
CTATCAAA	-0.0829
CTCCGGGC	0.448
CCCCGAGC	0.219
TCAAGCCA	-0.0992
AGATGCTG	-0.195
GCGTGCCC	-0.0595
GAAAGGTA	-0.0464
CCTACGAG	-0.251
CCTAGAGA	-0.235
GCAGCTGC	0.307
TCGGCGCA	0.233
AAAAACCC	0.147
CTAGTGTA	-0.216
GATGCTCC	0.278
ACGGAAGT	0.29
CGGATGTC	0.4
CCGTCACC	0.167
ACATCAGG	-0.0864
AGAGGGCT	-0.368
AACGTTCT	-0.0505
ATGCCATA	-0.301

Sequence	PBM E-score
ATTTAGGG	0.109
AGGATACT	-0.0649
ACGCATTA	-0.216
AGAATAGA	-0.147
ACCAGCAT	-0.138
ATTGTTTG	-0.112
TCAGTTCA	-0.185
GTGTGAAC	-0.0885
AACCCTGT	-0.219
ACTTGCAA	-0.111
AAGGTAAC	-0.0766
TGGGCACA	-0.163
ATGGGCAA	-0.118
GATTGCTA	-0.156
AGCCCTTG	-0.276
TAGATCGA	-0.0704
GGGAGAAC	-0.0233
AAAAAAGC	-0.215
CACTATCC	0.0508
CCGATGGC	0.321
GATCGGCA	0.173
TCGACAGA	-0.274
CGCGACCC	0.028
TGCTAAAA	-0.158
CAATTCTG	-0.247

Sequence	PBM E-score
GCTGAATA	-0.258
AATGGTCA	-0.0887
ACAAAAAT	-0.0086
AACACCAT	-0.0928
AGAAGTGA	-0.158
ATCTTAGC	-0.144
AACGCAAA	0.0725
ATAACGCG	0.179
GCATTAAA	-0.212
CGGCGTAC	0.316
GATAGCGC	0.0273
AGATGGCC	0.0298
ACTACTCG	0.0653
CCGAAGGC	0.214
GGATGAAA	0.14
CATGGAAC	-0.206
CTTCTAGC	-0.12
CCACTGCC	-0.153
CTCAAGAA	-0.0162
AAGCCGCC	0.112
ACTAAGGG	-0.0488
AGAGTACC	-0.18

Source: the supplement of paper PMC3334620
